Results from PubChem BioAssay AID504832 (National Center for Advancing Translational Sciences (NCATS), 2011).
Screen size: about 310,000 compounds; about 18,000 (5.8%) were called active. Inconclusive results, whose numbers are uncertain, are shown with a selection of clear calls. The call rests on the fitted dose curve; in most records, active means well fitted inhibition curve with a large enough effect; inconclusive means small, poorly fitted or top-dose-only effect, or another doubt; inactive means no such curve, though single readings can be large or run the other way. Potencies of inconclusive entries are left out as doubtful fits.

Assay: Primary qHTS for delayed death inhibitors of the malarial parasite plastid, 48 hour incubation
Conditions: P. falciparum luciferase growth in erythrocytes; series mostly up to 28.7 µM; activity change, negative = inhibition: at the top concentration
Procedure, shortened: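 First compound was added to culture medium, then infected red cells at 0.1% parasitemia and 2% hematocrit (final). After incubation at 37 C under 5% CO2, luciferase detection reagent was dispensed and light output recorded.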
On the % scale 0 is the no-effect control and ±100 the full control effect; potency means the concentration at half of the fitted maximal effect; tags describe the fitted curve by direction and shape.

| Structure (SMILES) | Potency | activity change, negative = inhibition |
| --- | --- | --- |
| c1ccc(CN=C2NN=C(c3ccccc3)CS2)cc1 | inconclusive [inhibitor, single point] | – |
| COc1c(CC=C(C)C)cc(C2CC(=O)c3c(O)cc(O)cc3O2)cc1CC=C(C)C (configuration not stated) | inconclusive [inhibitor, full curve] | – |
| CCN1CC(CNC(=O)c2ccc3nc(Cc4cccc(Cl)c4)oc3c2)CC1=O (configuration not stated) | – | inactive: 0.545% |
| CCc1ccc(-c2nc(CN3CCCC(C(=O)NCCc4ccc(OC)c(OC)c4)C3)c(C)o2)cc1 (configuration not stated) | inconclusive [inhibitor, full curve] | – |
| CC(=O)OC(C#CCN1CCOCC1)c1ccccc1 (configuration not stated) | inconclusive [inhibitor, partial curve, poor fit] | – |
| O=C(CN(Cc1cccs1)C(=O)CN1C(=O)COc2ccccc21)NCc1ccco1 | – | inactive: 7.82% |
| CCOc1ccc(NC(=O)CN(C)S(=O)(=O)c2ccc3c(c2)CCC(=O)N3)cc1 | inconclusive [inhibitor, single point] | – |
| Cc1nc2ccc(C(C(F)(F)F)(C(F)(F)F)C(F)(F)F)cc2[nH]1 | inconclusive [inhibitor, single point] | – |
| O=C(O)C1CC=CCC1C(=O)Nc1cccc(Cl)c1Cl (configuration not stated) | inconclusive [inhibitor, single point] | – |
| CC(=O)N1c2ccc(S(=O)(=O)NCCC(=O)NCc3ccc(N(C)C)cc3)cc2CC1C (configuration not stated) | inconclusive [inhibitor, partial curve, poor fit] | – |
| O=C(CN1CC(c2ccccc2)CC1=O)NCc1ccc(F)cc1 (configuration not stated) | – | inactive: 20.6% |
| COc1cc(C(=O)NCCOc2ccc(Cl)cc2)ccc1OCc1c(C)noc1C | inconclusive [inhibitor, single point] | – |
| O=C1N=C(N2CCN(c3ccccc3)CC2)S/C1=C/c1ccco1 | inconclusive [inhibitor, partial curve] | – |
| Cc1ccc(NC2=Nc3ccccc3CC2)cc1 | – | inactive: -39.5% |
| CC(=O)c1sc(NC(=O)CCOc2ccccc2)nc1C | – | inactive: 72.6% |
| CCc1nonc1NC(=O)COc1cc(C)c(Cl)c(C)c1 | inconclusive [inhibitor, full curve, poor fit] | – |
| CCCCNC(=O)N1CCN(C(c2ccccc2)c2ccccc2)CC1 | inconclusive [inhibitor, partial curve, poor fit] | – |
| O=C(N/N=C/c1ccccn1)c1cc(C2CC2)nc2ccccc12 | – | inactive: -6.71% |
| Cn1ncc2c(O/N=C(\N)c3ccc(C(C)(C)C)cc3)ncnc21 | inconclusive [inhibitor, full curve] | – |
| O=C(Nc1ccc(OC(=O)c2cccnc2)cc1)c1cccnc1 | inconclusive [inhibitor, full curve, poor fit] | – |
| COc1ccc(OCc2nnc(SCC(=O)N3C(C)CCCC3C)o2)cc1 (configuration not stated) | inconclusive [inhibitor, partial curve, poor fit] | – |

| Structure (SMILES) | Potency | activity change, negative = inhibition |
| --- | --- | --- |
| COc1ccccc1CNC(=O)c1ccc(-c2ccccc2C(F)(F)F)o1 | inconclusive [inhibitor, single point] | – |
| CC(NC(=O)CCNC(=O)c1ccc(Br)cc1)c1ccc(-n2ccnc2)cc1 (configuration not stated) | inconclusive [inhibitor, single point] | – |
| COc1ccc2nc(SC(C)C(=O)NC3(C#N)CCCCC3)[nH]c2c1 (configuration not stated) | inconclusive [inhibitor, single point] | – |
| Cc1cccc(/C=N/NC(=O)c2cc3c(s2)-c2ccccc2CC3)c1 | inconclusive [inhibitor, single point] | – |
| O=C(CSc1ccc2nnc(-c3cccnc3)n2n1)Nc1cccc(F)c1 | inconclusive [inhibitor, partial curve] | – |
| C(=C\c1ccccc1)/CSc1nnc(-c2cnccn2)n1Cc1ccco1 | inconclusive [inhibitor, single point] | – |
| Cc1ccc(S(=O)(=O)n2ccc3c(OCCOCCNCc4ccc(F)cc4)cccc32)cc1 | active: 9.28 µM | – |
| Nc1nnc(SCCCC(=O)c2ccccc2)s1 | – | inactive: 34.6% |
| CC(/C=N/NC(=O)Cc1cccn1C)=C\c1ccccc1 | – | inactive: 53.7% |
| CCCCn1c(N)c(N(CC(C)C)C(=O)c2ccc(S(=O)(=O)N3CCC(C)CC3)cc2)c(=O)[nH]c1=O | inconclusive [inhibitor, single point] | – |
| CC1=CC(=O)N(c2ccn(C)n2)C1=O | inconclusive [inhibitor, partial curve, poor fit] | – |
| COc1ccccc1N1CCN(C(=O)CCSCc2ccccc2F)CC1 | – | inactive: 14.4% |
| CCOc1cc(-c2noc(CCCC(=O)NC3CCCCC3)n2)ccc1OC | inconclusive [inhibitor, single point] | – |
| CCOC(=O)c1cc2c(=O)n3ccccc3nc2n(Cc2ccco2)c1=NC(=O)c1ccccc1OCC | inconclusive [inhibitor, partial curve, poor fit] | – |
| CC(CNC(=O)C1CCCN(S(=O)(=O)N2CCOCC2)C1)c1ccccc1 (configuration not stated) | inconclusive [inhibitor, partial curve, poor fit] | – |
| CCOc1ccc(NS(=O)(=O)c2ccc(C(=O)NNC(=O)c3ccccc3O)cc2)cc1 | inconclusive [inhibitor, single point] | – |
| CCCCSCc1nc2ccccn2c1Br | inconclusive [inhibitor, full curve, poor fit] | – |
| CN1C(=O)CC(N2CCN(C(c3ccccc3)c3ccccc3)CC2)C1=O (configuration not stated) | inconclusive [inhibitor, single point] | – |
| COc1ccccc1CNC(=O)COc1cc2c(c3oc(=O)cc(C)c13)CCC(C)(C)O2 | inconclusive [inhibitor, partial curve, poor fit] | – |
| CCCCNCCOCCOc1ccc(Cl)cc1Br | inconclusive [inhibitor, single point] | – |
| O=C(CN1CCCN(S(=O)(=O)c2ccc(F)cc2)CC1)Nc1ccccc1Br | inconclusive [inhibitor, partial curve, poor fit] | – |
